Assay results taken from paper PMC4336329 (PLoS ONE, 2015).
Out of some 310,000 compounds screened, about 2,200 (0.71%) showed an effect of 50% or more. Effects have a minus sign here. This is one part of the list.

Biological target: human ether-à-go-go-related gene (hERG) potassium channel (human, UniProt Q12809)
Assay: primary screen, population patch clamp on CHO cells stably expressing hERG

human ether-à-go-go-related gene (hERG) potassium channel, sequence (Q12809 whole entry, looked up): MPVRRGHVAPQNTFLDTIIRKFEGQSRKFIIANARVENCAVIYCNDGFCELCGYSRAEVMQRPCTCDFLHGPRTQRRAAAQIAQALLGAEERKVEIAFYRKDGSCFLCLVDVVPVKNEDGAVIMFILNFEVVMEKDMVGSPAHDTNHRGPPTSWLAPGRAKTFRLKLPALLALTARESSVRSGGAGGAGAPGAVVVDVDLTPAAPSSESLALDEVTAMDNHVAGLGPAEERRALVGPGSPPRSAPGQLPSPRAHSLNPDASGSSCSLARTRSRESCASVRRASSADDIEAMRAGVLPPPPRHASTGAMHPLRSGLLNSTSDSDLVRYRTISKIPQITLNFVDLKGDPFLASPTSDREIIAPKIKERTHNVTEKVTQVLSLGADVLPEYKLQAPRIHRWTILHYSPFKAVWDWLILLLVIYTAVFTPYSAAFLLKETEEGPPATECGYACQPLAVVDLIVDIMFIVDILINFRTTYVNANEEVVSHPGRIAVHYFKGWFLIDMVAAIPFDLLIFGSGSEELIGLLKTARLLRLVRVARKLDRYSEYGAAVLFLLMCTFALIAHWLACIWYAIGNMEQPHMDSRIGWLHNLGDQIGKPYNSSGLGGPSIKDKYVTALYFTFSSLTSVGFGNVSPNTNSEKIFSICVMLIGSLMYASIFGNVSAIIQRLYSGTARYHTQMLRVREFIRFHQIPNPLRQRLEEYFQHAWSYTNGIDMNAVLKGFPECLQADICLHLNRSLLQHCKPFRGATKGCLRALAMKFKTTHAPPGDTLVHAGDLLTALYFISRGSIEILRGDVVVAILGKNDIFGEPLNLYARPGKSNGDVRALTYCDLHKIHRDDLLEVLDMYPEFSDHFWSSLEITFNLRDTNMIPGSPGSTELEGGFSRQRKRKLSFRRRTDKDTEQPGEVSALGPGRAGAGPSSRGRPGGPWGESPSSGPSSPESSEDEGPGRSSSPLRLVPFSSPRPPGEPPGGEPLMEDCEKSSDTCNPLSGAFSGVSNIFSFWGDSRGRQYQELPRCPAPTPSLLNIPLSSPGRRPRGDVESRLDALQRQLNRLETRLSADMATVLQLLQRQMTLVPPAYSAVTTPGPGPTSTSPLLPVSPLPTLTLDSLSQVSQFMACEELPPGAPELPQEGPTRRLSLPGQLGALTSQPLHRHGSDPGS

Compound | hERG current change (%, negative = inhibition) at 1uM
Cc1ccc(N(CC(=O)N/N=C/c2ccco2)S(=O)(=O)c2ccccc2)cc1 | 7.77%
CCCCC(c1nnnn1Cc1ccco1)N1CCN(C(=O)c2ccco2)CC1.Cl (stereo not drawn) | -13.5%
CC12CN(C(=O)c3cccc([N+](=O)[O-])c3)C3(C#N)CC1CCC23C (stereo not drawn) | 13.9%
COc1ccc(OC)c(N2C(=O)CC(C(C)c3ccccc3)C2=O)c1 (stereo not drawn) | 18%
CCOc1ccc2nc(N(CCN(C)C)C(=O)c3cc4ccccc4cc3OC)sc2c1.Cl | -0.416%
Cc1ccc2c(=O)c(C(=O)c3ccc(F)cc3)cn(CC(=O)NCc3ccco3)c2n1 | 13.1%
O=C(c1cccc(OC(F)F)c1)N1CCN(c2ncccn2)CC1 | 12.4%
Nc1nc(Nc2ccccc2F)nc(N2CCOCC2)c1[N+](=O)[O-] | 15.7%
CCN(CC(=O)Nc1ccc2c(c1)OCCO2)S(=O)(=O)c1ccccc1 | 18.8%
CCOC(=O)CN1CC23C=CC(O2)C(C(=O)NC2CCCCCC2)C3C1=O (stereo not drawn) | -3.67%
Cc1nccn1CC(O)COc1ccccc1 (stereo not drawn) | 9.26%
COc1cc(C2C(C#N)=C(N)N(Nc3ccccc3)C3=C2C(=O)CC(C)(C)C3)ccc1OCc1cccc(F)c1 (stereo not drawn) | 23.8%
Cc1ccc(S(=O)(=O)N2CCOCC2)cc1C(=O)NC(=S)N1CC(C)OC(C)C1 (stereo not drawn) | 16.8%
Cc1ccc2oc(C(=O)NCC3CCOCC3)c(C)c2c1 | 10.3%
COc1cccc(-c2nc(NCc3ccco3)c3ccccc3n2)c1O | 7.26%
CCOC(=O)c1cccc(NC(=O)CS(=O)(=O)Cc2nc(-c3cccc(OC)c3)oc2C)c1 | 0.17%
O=C1OCc2cc(NC(=O)C3CCCCC3)ccc21 | 19%
CCC(=O)Nc1ccccc1C(=O)C(=O)Nc1ccccc1 | 2.64%
Cc1ccc(-c2nn(Cc3ccccc3)cc2C(=O)O)cc1 | 13.1%
Cc1ccc(C(=O)O/N=C(\N)c2nonc2N)cc1 | 11.2%
Oc1ccc(-c2n[nH]c(C(F)(F)F)c2-c2ccccc2)c(O)c1 | 8.98%
Cc1cccc(N2CCN(C(=O)CCNS(=O)(=O)c3ccc4c(c3)CCC(=O)N4)CC2)c1C | -10.2%

Compound | hERG current change (%, negative = inhibition) at 1uM
Cc1ccc(S(=O)(=O)N2CCN(CC(O)c3ccccc3)CC2)cc1C (stereo not drawn) | 1.05%
O=C(Nc1ccc(NC(=O)C23CC4CC(CC(C4)C2)C3)cc1)c1cc(F)c(F)cc1Cl | 5.06%
CCn1c(SCC(=O)Nc2ccc(OC)cc2)nc2nc3c(cc2c1=O)COC(C)(C)C3 | -32.8%
O=C(N/C(=C/c1ccccc1F)C(=O)N1CCCCC1)c1ccccc1 | -3.53%
COc1ccc(NC(=O)C(=O)NCCC2CCCCN2S(=O)(=O)c2ccc(F)cc2)cc1 (stereo not drawn) | 10.3%
CCOC(=O)c1c(C)[nH]c(C(=O)OCC(=O)Nc2ccc(OC)c(Cl)c2)c1C | 19.9%
COc1cccc(N=Nc2c(N)[nH]n3c(=O)cc(-c4ccccc4)nc23)c1 | -6.89%
Cc1nn(Cc2ccccc2)c2sc(C(=O)N3CCN(Cc4ccc5c(c4)OCO5)CC3)cc12.Cl | 9.2%
Cn1c(SC/C=C/c2ccccc2)nnc1-c1ccco1 | 11.5%
CCC1(C)Cc2c(sc3nnn(CC(=O)Nc4ccc(Cl)cc4)c(=O)c23)CO1 (stereo not drawn) | 13.9%
COc1ccc2[nH]c(O)c(N=O)c2c1 | 4.67%
O=C1CC(c2cccc(Br)c2)c2cc3c(cc2N1)CCC3 (stereo not drawn) | 8.78%
CCOc1ccc(NC(=O)CSc2ccccc2N)cc1 | 8.44%
CCOc1cc(C=C(C(=O)OC)C(=O)OC)ccc1OCc1ccc([N+](=O)[O-])cc1 | 11.6%
COc1ccc(CCCc2n[nH]c(=S)o2)cc1C | 13.6%
O=C(CSc1nnc(-c2ccncc2)o1)N1CCc2ccccc2C1 | -19.2%
COc1ccc2[nH]cc(/C=C(/C#N)S(=O)(=O)c3ccccc3)c2c1 | 7.93%
Clc1cncc(Cl)c1NNc1c2ccccc2nc2ccccc12 | 11.8%
O=C(CN1C(=O)NC2(CCCC2)C1=O)NNC(=O)c1ccc(F)cc1 | 18%
Cc1ccc(C(=O)Nc2ccccc2C(N)=O)o1 | -3.84%
CCOC(=O)CCc1c(C)nc2cc(-c3ccc(F)cc3)[nH]n2c1=O | 8.2%
COc1cccc(/C=N\NC(=O)c2cc(OCC(F)(F)F)ccc2OCC(F)(F)F)c1 | 7.83%

Compound | hERG current change (%, negative = inhibition) at 1uM
O=P(CCNCc1ccco1)(c1ccccc1)c1ccccc1 | 8.04%
CC(NCC(=O)NC(=O)NC1CCCC1)c1ccc(Cl)cc1Cl (stereo not drawn) | -10.2%
Clc1ccc(Cl)c2sc(N3CCOCC3)nc12 | 10.1%
CCCCSc1c(C)c2cc3c(cc2[nH]c1=O)OCO3 | 16%
CCC(C)Nc1nc(SC(C(C)=O)C(C)=O)nc(N(C)C)n1 (stereo not drawn) | -6%
COc1ccc(Cn2c(O)c(/C=N/NC(=O)c3ccccc3O)c(=O)[nH]c2=O)cc1 | 1.81%
CC1CCN(CCCn2c(SCC(=O)NC3CCCC3)nc3ccccc3c2=O)CC1 | -64.8%
CC(Cc1ccccc1)[n+]1cc(/N=C(\[O-])N(C)C)on1.Cl (stereo not drawn) | 3.62%
Cc1nn(C)c(Cl)c1CN1CCN(CC(C)C)C(CCO)C1 (stereo not drawn) | 4.79%
Cc1csc(NC(=O)CSc2nc3ccccc3s2)n1 | 3.48%
O=c1c2c([N+](=O)[O-])cc([N+](=O)[O-])cc2sn1Cc1ccccc1 | 18.8%
CCc1cccc(C)c1NC(=O)CN(C)S(=O)(=O)c1ccc(-c2ccc(=O)[nH]n2)s1 | -1.3%
CC(=O)Nc1ccc2nc(NC(=O)c3cccs3)sc2c1 | 12.8%
Cc1ccnc(Sc2ccc([N+](=O)[O-])cc2[N+](=O)[O-])n1 | 11.5%
CCOCCCNCC(=O)NCC1CCCCC1.O=C(O)C(=O)O | 22.2%
c1ccc(CN2CCC(Nc3nc(-c4cccs4)nc4ccccc34)CC2)cc1 | 10.5%
COc1cccc(CNC(=O)CCNC(=O)Cn2ccc3ccccc3c2=O)c1 | 8.94%
COc1ccc(C(=O)C2CCCN(Cc3c(F)ccc(F)c3F)C2)c(OC)c1 (stereo not drawn) | 9.24%
C/C(CS(=O)(=O)c1ccc(Cl)cc1)=N/NC(N)=S | -5.64%
Cc1nc(NC(=O)/C=C/c2ccccc2)sc1C(=O)Nc1ccccc1Cl | 16.3%
COc1ccc(C(CC(=O)N2CCC3(CC2)OCCO3)NS(=O)(=O)c2ccc(C)cc2)cc1 (stereo not drawn) | 6.54%
CCCCNC(=O)NS(=O)(=O)c1ccc(NS(=O)(=O)c2ccccc2)cc1 | 14.2%

Compound | hERG current change (%, negative = inhibition) at 1uM
NC(=O)c1ccc(NC(=O)CN2CCN(C(=O)c3ccco3)CC2)cc1 | -1.81%
COC(=O)COc1ccc2oc(=O)cc(-c3cc4ccccc4o3)c2c1 | 11.2%
COc1ccc(CN(C)C(=O)CCc2ccc(S(=O)(=O)N3CCCCCC3)cc2)c(OC)c1 | -3.94%
COC(=O)C1=C(c2cccc(OCc3ccccc3)c2)C[C@@H]2CC[C@H]1N2C(=O)NCc1ccc(OC)cc1 | 14.3%
Cc1cc2c(=O)n(CC(=O)N3CCN(c4ccc(F)cc4)CC3)cnc2s1 | 5.2%
COc1ccc(NCC(=O)Nc2cc(S(=O)(=O)N3CCOCC3)ccc2N2CCOCC2)c(OC)c1 | -3.27%
N#Cc1c2c(c(Nc3ccc(O)cc3)n3c1nc1ccccc13)CCC2 | 11.7%
CC(=O)Nc1ccc(C(=O)OCC(=O)Nc2ccccc2F)cc1 | 6.13%
Nc1ccc(C(=O)c2cccs2)cc1[N+](=O)[O-] | 15.8%
CCCCC(CC)COCCCN=Cc1c(O)[nH]c(=S)[nH]c1=O (stereo not drawn) | 6.19%
CCOC(=O)c1cccc(NS(=O)(=O)c2c(C)[nH]c(C)c2C(=O)N2CCCC2)c1 | 16.6%
O=C(C1CCCO1)N1CCN(C(=S)Nc2cc(F)cc(F)c2)CC1 (stereo not drawn) | 11.4%
CCOC(=O)C(=O)NC(C)c1ccccc1 (stereo not drawn) | 10.1%
CC(C)c1nnc(NC(=O)c2sc3ccccc3c2Cl)s1 | 9.11%
O=C(COc1ccccc1F)Nc1ccc(S(=O)(=O)NCc2ccco2)cc1 | 7.73%
CCc1nccn1S(=O)(=O)c1cccc([N+](=O)[O-])c1 | 11.9%
Cc1c(CCOC(=O)c2cccc([N+](=O)[O-])c2)sc[n+]1CC(=O)c1ccccc1.[Br-] | 6.58%
O=C(O)CCSCCCN1C(=O)c2cccc3cccc(c23)C1=O | 19.6%
CCOC(=O)c1c(NC(=O)CSc2nnc(C)c(=O)[nH]2)sc(C)c1C | 9.28%
Cc1cc2n(n1)SC(Nc1cc(Cl)ccc1Cl)N2 (stereo not drawn) | 7.4%
Cc1c(Br)c([N+](=O)[O-])nn1CC(=O)Nc1nccs1 | 9.21%
